The source of these data is patent US20220204643A1 (published 2022).

The target of assay [1] is T1, catenin alpha like 1, transcript variant 1 (human, UniProt Q9UBT7 1-734).
T1 construct: HuProt array protein, full-length recombinant from yeast; also called CTNNAL1
T1 sequence: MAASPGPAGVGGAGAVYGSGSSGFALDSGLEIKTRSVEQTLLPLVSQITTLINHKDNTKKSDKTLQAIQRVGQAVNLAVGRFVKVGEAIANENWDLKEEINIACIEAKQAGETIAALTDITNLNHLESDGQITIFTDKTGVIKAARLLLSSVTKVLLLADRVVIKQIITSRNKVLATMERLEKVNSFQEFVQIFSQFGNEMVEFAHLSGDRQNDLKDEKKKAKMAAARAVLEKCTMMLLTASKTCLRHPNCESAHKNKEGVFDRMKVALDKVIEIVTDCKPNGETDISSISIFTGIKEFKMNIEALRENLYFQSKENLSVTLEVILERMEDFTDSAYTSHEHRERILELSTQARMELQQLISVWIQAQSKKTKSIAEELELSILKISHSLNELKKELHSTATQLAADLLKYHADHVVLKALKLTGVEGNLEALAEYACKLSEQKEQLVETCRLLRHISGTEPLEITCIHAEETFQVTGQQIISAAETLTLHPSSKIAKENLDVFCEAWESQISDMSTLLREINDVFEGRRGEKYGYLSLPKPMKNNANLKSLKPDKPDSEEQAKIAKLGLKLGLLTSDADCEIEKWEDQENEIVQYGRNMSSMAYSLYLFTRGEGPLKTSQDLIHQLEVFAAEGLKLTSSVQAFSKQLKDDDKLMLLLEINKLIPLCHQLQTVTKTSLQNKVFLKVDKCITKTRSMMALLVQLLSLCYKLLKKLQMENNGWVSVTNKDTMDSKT

Assay [2] has as its target T2, catenin alpha like 1, transcript variant 1 (human, UniProt Q9UBT7 1-734).
T2 construct: on protein array; also called CTNNAL1
T2 sequence: T1 sequence
Briefly: protein array.

Where two headings read alike, the source gives them in different places.

B1: TBRE1023 (antibody, V domains shown)
VH: PVQLVQSGAEVKKPGSSVKVSCKASGGTFSSYAISWVRQAPGQGLEWMGGIIPIFGTANYAQKFQGRVTITADESTSTAYMELSSLRSEDTAVYYCARDPMWVSYAFDIWGQGTMVTVSS
VL: [… about 100 residues …]
notes: detected with anti-human IgG Fc
Consider B1, for which the binding result in assay [1] is reported as “binds”.

B2: TBRE1023 (antibody, V domains shown)
VH: B1 VH
VL: [… about 100 residues …]
notes: VH/VL only
On to B2, for which, in assay [2], the binding result is recorded as “binds”.
